Data published in the RNAGym collection of RNA variant scans (doi:10.1093/nar/gkz1192).
Read counts are not given, so values of variants with three or more changes are uncertain.

B1: CPEB3 Ribozyme (parent)
chain: UAACAGGGGGCCACAGCAGAAGCGUUCACGUCGCAGCCCCUGUCAGAUUCUGGUGAAUCUGCGAAUUCUGCUGUAUAUCUC

Variants of: B1
Assay: self-cleavage, relative activity (ratio to wild type); higher = more cleavage; in vitro, sequencing
In short: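 Relative activity was defined as the cleaved/total read fraction for a variant divided by the same fraction for the unmutated ribozyme. CPEB3 self-cleaving ribozyme libraries were made by rounds of error-prone PCR, barcoded, and transcribed in vitro with T7 RNA polymerase for 5 hours at 37°C, and cleavage ran through transcription plus a 15 min DNase I step before EDTA. Illumina sequencing of template-switched reverse transcripts gave the reads, and DNA sequencing mapped the barcodes. Averages come from three batches, using variants with at least 5 reads.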

Row | Variant | self-cleavage
1 | C23U U48C U51C A57G U80A | 0.18
2 | A21G U48C U49A U60C U66C | 0.21
3 | A21U U43A A65G U76C | 0.24
4 | C23G U43C U48C A75U | 0.12
5 | C23A U41C A47G | 0.16
6 | A21U U31A U54C U60C U66A | 0.08
7 | C23A U25C A28G U69C | 0.09
8 | G24A C27U A35C U72C A75G | 0.19
9 | G22A C39U A57G U69A | 0.1
10 | A21U A28U U31C C39G U43C | 0.09
11 | A21U U48C A56G | 0.39
12 | G24A U49C U74C | 0.07
13 | A21U A35G A65G U66C | 0.57
14 | G22C U48C U69C | 0.1
15 | C23U U54C U74C | 0.34
16 | C23U U54C U60C | 0.11
17 | G24U A35U G46A U48C C79A | 0.16
18 | C23U U26C U31C U60C U80A | 0.05
19 | A21G U66C C71A U72A | 0.15
20 | G22A U43G U54A U67A | 0.08
21 | C23G A28U U72A | 0.1
22 | G24C A28U U43A A57G | 0.08
23 | A21U G36U U67C | 0.08
24 | A21G U43A U48C A57G U67C | 0.09

Row | Variant | self-cleavage
25 | G24A A28G C29U U41C | 0.1
26 | U25A A45G U49A U51A | 0.22
27 | A21U U26C A56G A64G U72C | 0.06
28 | C23U U25C U41C | 0.06
29 | A21G U41C U51C U78C | 0.56
30 | C23U C29G U51C | 0.1
31 | C23U U54A A65G U66C | 0.16
32 | A21G U41C A56U U66C | 0.82
33 | A21U U41A U43C A64G U78C | 0.08
34 | A21U A28G A47U U72C | 0.13
35 | A21U C39A U41A U60G U69G U72C | 0.05
36 | U25A A35G A45G U48C U66A U72C | 0.09
37 | G24C C37U U67C | 0.13
38 | G24U A45G G53A U69C U80A | 0.06
39 | G22A U26C A47G | 0.09
40 | G22U U51A U78C | 0.33
41 | U25A A65U C68A U72A | 0
42 | A21G U31C U48C | 0.12
43 | G24A U26C U54G | 0.07
44 | C23U U43C U72C | 0.12
45 | G24C U41C G42A G55C A56G U60C G73A | 0.23
46 | A21G U31C U43C U60C A77G | 0.04
47 | G24A A28G A47G G55U | 0.2
48 | A21U U49C A64G | 0.45

Row | Variant | self-cleavage
49 | A21U U43C U49C U54A | 0.37
50 | C23U A28G U31C | 1.01
51 | G22U U43C A45U U54G A56U A75G | 0.05
52 | C23A A28G U41C U54C A65G U78C | 0.06
53 | U25A A35G A75U U76A | 0.17
54 | G22U U48C A65G | 0.08
55 | A21G U41A U67A U72C | 0.15
56 | G24A U41A U66A | 0.08
57 | C23A C34A A47G | 0.25
58 | C23U G63C A64U U80C | 0.09
59 | A21G U51A U69A U72C U78A | 0.18
60 | A21G U67A U78C | 0.14
61 | A21G U51C U67C | 0.56
62 | A21G U31C U60A | 0.35
63 | A21U C29A A35G U51A U72C | 0.16
64 | C23A U25C A35G | 0.27
65 | G24U A45U U58C U60C U66C | 0.1
66 | U25A A35G U72C | 0.16
67 | A21U U43C A57G U72C U78C | 0.35
68 | U25A A35G A45G U67A | 0.22
69 | A21G U41C U49C | 0.51
70 | U25A A64G A65G C68U | 0.12
71 | A21U U26C G30A U43C U51C A57U U72A | 0.5
72 | C23A A35G U49C U80A | 0.08

Row | Variant | self-cleavage
73 | G22A U60A U69C U72A U78C | 0.11
74 | U25A A57G C79U | 0.37
75 | A21G U49C A65G U72C | 0.12
76 | C23U A35G G70A U72C | 0.28
77 | C23G U26A A45G | 0.09
78 | C23U U41C A47G U58C | 0.4
79 | C23G G42A U58A | 0.07
80 | G22A G53C U54G | 0.31
81 | A21G U41A U58C C59A | 0.1
82 | G22A U25A C38U U41G A56G G70A | 0.05
83 | A21G U67C A77G | 0.16
84 | A21U U31C A45C U72C | 0.13
85 | G24A U49C U51C U67C | 0.4
86 | A21G U43A A57G U69A | 0.23
87 | A21U U49C U54A U78C | 0.1
88 | C23G U25C A35U U60C | 0.06
89 | G24U U25C U43C G53U U78A | 0.07
90 | A21U U25C U49A U69C U78C | 0.05
91 | C23U C50G A75C | 0.11
92 | G24A U54G U69G U80A | 0.09
93 | C23U U31G U58A | 0.06
94 | A21G U48C A56G U76C U78C | 0.25
95 | A21G U41A C59U U60A | 0.1
96 | G24A U25C A45G U74C A75G A77U | 0.06

Row | Variant | self-cleavage
97 | C23U U60C U72C A77G | 0.05
98 | A21G U31C G36C A47G G53A A65U U66C | 0.03
99 | A21G U58C U74A | 0.42
100 | G24A U60G U74A | 0.12
101 | A21U U66C U80C | 0.39
102 | G22A U41C U43A | 0.4
103 | A21G U41C A77G U80C | 0.57
104 | G24C G36U U51C U80C | 0.2
105 | A21G U54C U80C | 0.7
106 | C23G C32A C40A C71A | 0.04
107 | A21G U31C C34G U51A U69C | 0.06
108 | A21U C29U G33A C34U U43C U48C G52A | 0.06
109 | A21G U49C A57U U72A U78C | 0.09
110 | U25A C40U U48C A75U U80C | 0.29
111 | C23U U41C U49C U72A | 0.04
112 | A21U C23U A45G A64G | 0.26
113 | A21U A35G C50U | 1.21
114 | C23G U26A U60C U74A | 0.07
115 | U25A A28U U76C | 0.41
116 | G24A G30A U54C | 0.33
117 | C23A U51C U74A A75G | 0.08
118 | C23U U26C G52U A65G U66A U67C | 0.07
119 | A21G U41C U51C C62A | 0.15
120 | G24U C29A U80G | 0.17

Row | Variant | self-cleavage
121 | A21G U74C U80C | 0.54
122 | A21G U60A C62U | 0.41
123 | C23A A64U U78C | 0.14
124 | A21G U74C A75G | 0.99
125 | C23G U25C A77G | 0.19
126 | A21G U54C U72G U78C | 0.32
127 | G24A A47C A56G U60C | 0.13
128 | C23U C29U U43A U58C | 0.06
129 | U25A A28G U43C | 0.45
130 | G22A U43A U60A G73A | 0.26
131 | G24A A45U G55A A56C U78C | 0.07
132 | G24A U41C U58C A64U | 0.13
133 | A21U U26A U49A A65G | 0.14
134 | A21G U72G U78C U80A | 0.79
135 | A21U C23A C29U A56U C62A U80G | 0
136 | C23U U25C A35U A57U | 0.08
137 | A21G U43C U51C A64G U66C | 0.12
138 | C23A U26C U41A U51C U80A | 0.27
139 | A21U G33A U51C U72A | 0.11
140 | C23G C39U U72A | 0.12
141 | U25A A56G U67C U72C | 0.18
142 | A21G U41C U67C | 0.21
143 | C23U U31A U54A U58C A64G | 0.12
144 | G24C U26C U72C | 0.29

Row | Variant | self-cleavage
145 | G22U A28G U31A C40U U48C U51C U69C | 0
146 | C23U C40A U41G A45G U74C A75G | 0.19
147 | A21G U69G U76G | 0.43
148 | A21U U41C U43A A45C U60A A65G | 0.06
149 | U25A A28G U49C C71A | 0.09
150 | G24A U31C A57G U80A | 0.52
151 | G22A C50A A65G U80C | 0.23
152 | G24A A28G U41A U69C U78C | 0.11
153 | G24A A28C A56U | 0.16
154 | A21G U43A U51A U67C U69C | 0.15
155 | G24A A56U C62U A64G U69C | 0.09
156 | A21G U54C G61A A75U U78C | 0.14
157 | C23A U41C U74C | 0.67
158 | A21U C29U U80C | 0.29
159 | A21G U41C U78C | 0.45
160 | G24U U49C U54C A77U C81A | 0.05
161 | U25A A35C G63A | 0.13
162 | A21G U74A U76C | 1.01
163 | A21G U48C G52A | 0.45
164 | C23G A64G U80C | 0.25
165 | C23G G55A A65U A75G | 0.04
166 | G24A U26C C38A U66C U78C | 0.12
167 | A21U U26A U43C A45C U67C G70A | 0.23
